# The other results are listed elsewhere or left out. The full chains were built here from the parent and the listed change. Inactive controls read about 0.05.
# B1: TEV protease; numbered along this chain (parent)
# chain: MGESLFKGPRDYNPISSSICHLTNESDGHTTSLYGIGFGPFIITNKHLFRRNNGTLVVQSLHGVFKVKDTTTLQQHLVDGRDMIIIRMPKDFPPFPQKLKFREPQREERICLVTTNFQTKSMSSMVSDTSCTFPSGDGIFWKHWIQTKDGQCGSPLVSTRDGFIVGIHSASNFTNTNNYFTSVPKNFMELLTNQEAQQWVSGWRLNADSVLWGGHKVFMVKPEEPFQPVKEATQL
# Variants of: B1
# Test: raw area under fraction-flipped curve 0-4 h after induction (AUC4h, not background-subtracted), DNA-recorder readout of cleavage of the substrate (dimensionless); higher = more cleavage of the substrate by the protease variant
# Conditions: temperature: 34 °C; time window: 0-4 h after rhamnose induction
# Experimental: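 In vivo DNA recorder in E. coli TOP10(DE3) ΔrhaA at 34 °C. Each TEVp single-site mutant (parent TEVp 0) is paired with a single-site variant of the 7-mer TEVs (canonical ENLYFQ|S). The substrate sits between flexible linkers in a Bxb1-sfGFP-TEVs-SsrA fusion, so cleavage stabilises Bxb1 and speeds flipping of a recombination array, read by NGS. The value is the raw area under the fraction-flipped curve over 0-4 h after rhamnose induction (AUC4h), with ≥20 reads per time point. It is not background-subtracted; inactive controls average about 0.047.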
# 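Also: Bxb1 expression induced with 0.2% (w/v) L-rhamnose at OD600 near 0.5, cultures sampled hourly, flipped fraction per protease–substrate barcode pair counted by paired-end Illumina sequencing.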
Variant,area with substrate ENAYFQS,area with substrate ENCYFQS,area with substrate ENDYFQS,area with substrate ENEYFQS,area with substrate ENFYFQS,area with substrate ENGYFQS,area with substrate ENHYFQS,area with substrate ENIYFQS,area with substrate ENPYFQS,area with substrate ENQYFQS,area with substrate ENSYFQS,area with substrate ENTYFQS,area with substrate ENVYFQS,area with substrate ENKYFQS,area with substrate ENNYFQS,area with substrate ENWYFQS,area with substrate ENYYFQS,area with substrate ENRYFQS,area with substrate ENMYFQS
I85S,0.0519,0.0534,0.0432,0.0355,0.0516,0.0335,0.0437,0.0527,0.0418,0.049,0.0535,0.0432,0.0402,,,,,,
L191R,0.0579,,0.0451,0.0644,0.0652,0.0401,0.0572,0.0493,,0.0674,0.0621,,0.055,0.0635,0.0504,0.0229,0.0884,,
Q59E,0.0628,0.0825,0.069,0.0685,,0.0559,0.0567,0.0933,0.0603,0.0511,0.03,0.0667,0.0746,,,0.0713,0.053,0.0759,
L61Y,0.0537,0.0666,0.0553,0.0872,0.0416,,0.0582,0.0747,0.07,0.0662,0.0451,0.0558,0.0819,,0.0781,0.0684,0.0477,0.0643,
G54P,0.0552,,,,,,,,,,0.0609,,0.0831,,0.0529,,,,
H62G,0.0466,,0.0628,0.064,,0.0533,,,,0.0595,,0.0837,,0.0584,0.0676,,0.0509,0.0426,0.0312
I110W,0.0502,0.0537,,0.0544,0.0679,,0.0614,,,0.065,,,0.0675,,0.0526,0.0408,0.0598,,
R109S,0.0461,0.0625,0.0647,,0.0468,0.062,,,0.0301,0.0534,,0.0616,0.0761,0.0651,0.0722,0.0436,0.0607,0.0487,
R109A,0.0648,,0.053,,,,0.0311,,0.0674,0.0713,0.074,,,,,,,0.0654,
R50A,0.0814,0.0646,0.0608,0.0757,0.0663,0.0672,0.0648,0.127,0.0533,0.064,0.0732,0.0516,,0.0732,0.0659,,0.0585,0.0484,
C111E,0.0706,0.0257,0.0483,,0.0535,,,0.119,,,0.0581,0.0586,,0.0709,,,,,
D91G,0.0636,0.0817,0.0501,0.0694,0.0601,0.0536,,,,0.0701,0.0694,0.0699,0.085,,0.0643,0.0759,0.0441,0.0504,0.0835
D69V,0.0516,0.0643,0.0547,0.0595,0.0504,,0.0395,0.0798,,0.0571,0.0476,,0.0686,,0.066,,0.0461,0.0413,
M83N,0.0524,0.0501,,0.0694,0.0564,0.0752,0.0475,0.103,,0.0498,0.0516,0.0577,0.0547,,,,0.0481,0.0464,
R102S,0.0484,0.0524,0.0557,,0.0778,0.0641,0.043,0.0622,0.0449,0.0573,0.0464,0.0475,0.0493,0.0441,0.0471,,0.0325,0.0523,
R102V,0.0329,,0.0438,0.0546,0.048,,,0.0635,,0.0483,0.0498,0.0508,0.0609,0.0625,,,0.0477,0.0421,0.0528
M188H,0.0657,,0.0064,,,,,,,,0.0609,0.0662,,0.0436,,,,,
L73A,0.0609,,0.0493,0.0481,,,,,,,,,,,,0.0478,,0.0655,0.0421
K90T,0.0458,0.0643,0.0675,,0.0573,,,0.103,,0.0591,0.0466,0.066,0.181,0.0535,0.0613,0.0473,,0.0619,
S158K,0.0351,,0.054,0.0569,0.059,0.0528,,,0.0399,0.0501,0.0434,0.0552,0.0459,0.0556,0.0655,,,0.0927,
L99T,0.0552,0.0725,0.0422,0.0655,0.0315,,,,0.0271,0.0442,0.044,0.0575,,0.0612,,,0.0621,,
V220H,0.0524,0.0697,0.0546,,0.0587,0.0549,0.0618,0.124,0.0614,0.0628,,0.0554,0.0893,0.0557,,0.0066,,0.0367,
T30H,0.0788,0.0205,0.0631,0.0587,0.0786,0.0472,0.0558,0.077,0.0628,0.0641,0.0681,,0.0733,0.0522,0.0523,,0.0542,0.0785,0.0664
T129R,0.0698,0.0659,,0.0641,0.071,0.0708,0.0735,0.0877,,0.0471,0.0718,,0.0778,,,,0.0575,,
T71S,0.0721,0.0772,,,,0.054,0.0711,,,0.0549,0.0672,,0.068,,,,,,
K68S,0.0695,0.0589,0.0657,,,0.0663,0.054,0.109,0.0655,0.0634,0.0553,0.0676,0.0679,,0.0773,,0.065,0.0513,
T72W,0.0636,0.0645,0.0594,0.0584,0.0549,,,0.0617,0.0524,0.0485,,0.0546,,0.0519,0.0528,,,0.0624,
T72L,0.0488,0.0739,,,,0.062,,,0.0566,,0.0609,,0.0734,,0.0592,0.0426,0.0991,0.0742,0.095
Q97M,0.076,0.0608,0.0618,0.0843,,,0.0525,,,0.0628,0.0597,0.0592,0.0559,,0.0756,,,,0.077
